# From PubChem BioAssay AID1345082 (National Center for Advancing Translational Sciences (NCATS), 2018)
# The whole screen tested about 94,000 compounds, of which about 4,000 (4.3%) were called active. Inconclusive results, whose numbers are uncertain, are shown with a selection of clear calls. Calls follow the shape of the dose curve; as a rule, active = well fitted inhibition curve with a large enough effect; inconclusive = small, poorly fitted or top-dose-only effect; inactive = no such curve, though single readings can be large or run the other way. Potencies of inconclusive entries are doubtful fits and often do not repeat.
# Assay: Cytotoxic Profiling in NIH 3T3 Cell Line of Diverse Libraries Using Quantitative High-Throughput Screening; also: nearly all actives have a fitted effect of over 55% in size
# Conditions: NIH 3T3 viability, CellTiter-Glo ATP luminescence, 48-72 h; activity change, negative = cytotoxicity: at 96.7 µM (top of the series) unless noted; series mostly up to 96.7 µM
# Outline: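 Cytotoxicity is measured as loss of cellular ATP: NIH 3T3 cells (400/well) are exposed to compound for 48 or 72 hr at 37 °C, then CellTiter-Glo luminescence is imaged after 10 min at room temperature.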
# % is scaled to controls: 0 for no effect and ±100 for the full control effect; potency is read from the fitted curve at half-maximal effect; tags tell the direction and shape of the fitted curve.
SMILES,Potency,"activity change, negative = cytotoxicity"
COc1ccccc1OC1CCN(Cc2ccccc2C#N)CC1,"inconclusive: 44.7 µM [inhibitor, partial curve]",
Cn1ncc(N2CCC(NC(=O)Cc3ccsc3)CC2)cc1=O,,inactive: -9.4%
COCC(=O)NC1CCN(Cc2ccc(-c3ccsc3)cc2)C1 (configuration not stated),"inconclusive: 100 µM [inhibitor, partial curve]",
CC(=O)NC1(C)CCN(Cc2ccc(-c3cccc4ncccc34)cc2)C1 (configuration not stated),"inconclusive: 79.4 µM [inhibitor, partial curve, poor fit]",
CCOc1ccc(C(=O)Nc2ccc3c(c2)CCC(=O)N3CC(C)C)cc1,"inconclusive: 50.1 µM [inhibitor, partial curve, poor fit]",
CNC(=O)[C@@H]1CN(C(=O)c2c[nH]c3ccccc23)C[C@H]1COC,,inactive: -9.89%
Cc1cc(=O)n(CC(=O)N2CCCC(C)(Cc3ccc4c(c3)OCO4)C2)nc1C (configuration not stated),,inactive: -29.6%
O=C1NCC2(CCN(C(=O)c3ccc(Cl)cc3)CC2)Oc2ccccc21,"inconclusive: 70.8 µM [inhibitor, single point]",
OCC1CCN(Cc2cc3cc4c(cc3nc2-c2ccc(Cl)cc2)OCO4)CC1,"inconclusive: 39.8 µM [inhibitor, partial curve]",
O=C(C1CCCN(Cc2cccc(-c3ccc(F)cc3F)c2)C1)N1CCC(c2ccccc2)CC1 (configuration not stated),"inconclusive: 44.7 µM [inhibitor, partial curve, poor fit]",
Cn1nc(C2CCCC2)cc1N[S+](=O)([O-])c1ccccc1,"inconclusive: 89.1 µM [inhibitor, partial curve, poor fit]",
COc1ccc(F)cc1-c1cccc(C(=O)NCC(=O)NCc2ccc(C(F)(F)F)cc2)c1,active: 39.8 µM,
COc1cccc(-c2cn3cc(C(=O)NCc4ccc(Cl)cc4)nc3s2)c1,"inconclusive: 56.2 µM [inhibitor, partial curve, poor fit]",
Cn1cccc1C(=O)NC1CCN(c2cc(-c3ccccc3)[nH]n2)CC1,"inconclusive: 50.1 µM [inhibitor, partial curve, poor fit]",
CN(C)S(=O)(=O)N1CCC(Oc2ccc(C(=O)NCCc3ccncc3)cc2)CC1,"inconclusive: 22.4 µM [inhibitor, full curve]",
Cc1cc(S(=O)(=O)N2CCC3(CCC(=O)N(CC4CC4)CC3)CC2)ccc1F,"inconclusive: 50.1 µM [inhibitor, partial curve, poor fit]",
c1ccc(C2(c3ccccc3)CCCN(Cc3ncccn3)C2)cc1,"inconclusive: 89.1 µM [inhibitor, single point]",
